This note sets out measurements from PMC12136788.

To fix the notation:
B1: chr3:89559821:89559822:-_ENSMUSG00000027950_ENSMUST00000029562|mus_mus|FALSE|FALSE (ssRNA)
RNA: GGGAGUUCUACAGUCCGACGAUCCCCAGCACAGCCCUGCCUACCUUUAUUCCCACAGUGUAAAUGCUGGGAGCAGGUUCUAAGAUGGGCGCUGUUUGCCUGAUAUGUUCAACAGGAUACGGAAAGGAGCUGGACAAACUGUUCCAACAGAGGAUUGAGCAUCA
B2: chr7:88174460:88174461:+_ENSMUSG00000005621_ENSMUST00000107353|mus_mus|FALSE|FALSE (ssRNA)
RNA: GGGAGUUCUACAGUCCGACGAUCGCACCUGUAGCCCACUUUUCGGGCAUAGUGCAGGCAAUUCUCCUUUACGUGAGUCUGGAAGUAAGCAGAGCGACAGAGGACACCGCACUCCGGGCAGCAGUAGGGGGACUUGUGUGCAUGCAACAGAGGAUUGAGCAUCA
B3: chr9:130210260:130210261:-_ENSG00000197958_ENST00000361436|hu_mus|FALSE|FALSE (ssRNA)
RNA: GGGAGUUCUACAGUCCGACGAUCGCCCACAGACUGUGCAGUACCCAGGAUCUCCUUGAUAGUUCCAGAAAGUUCUCUAGCCAAAGACCGGUGUCUCAUCUGCCGGGCAAUGUUGACAAUCUCAUCAAAAGUAAUGUUCCCACUCAACAGAGGAUUGAGCAUCA
B4: chr1:39494564:39494565:+_ENSG00000168653_ENST00000372967|hu_hu|hu_hu_hu_mus_True|48_78 (ssRNA)
RNA: GGGAGUUCUACAGUCCGACGAUCAUGCAUUCGCCUCAUCGUUUUGUACCGAAGCAAACACUCUACGAAGUCAUCGAACUCUAUCUUGCACUCUUUCUUCGCCCGGGUCCCACCGAUCCCGUGUGCACACUCUAUCCACUCUUUCAACAGAGGAUUGAGCAUCA
B5: chr4:39507275:39507276:-_ENSG00000109814_ENST00000316423|hu_mus|motif|central (ssRNA)
RNA: GGGAGUUCUACAGUCCGACGAUCACUGGAGGAUUCUCUGGUAUCACCAGUAUCCUUUUUGAAUGCAAACCCCAAGAUAGCGGUCUUCUUAUCGGUCACUGUAUUAAACAGGCUAUCUAUGAUCCGUGAUGCAAACCUCCUCCUCAACAGAGGAUUGAGCAUCA
B6: chr7:151048522:151048523:+_ENSG00000013374_ENST00000566856|hu_mus|hu_hu_hu_mus_True|38_88 (ssRNA)
RNA: GGGAGUUCUACAGUCCGACGAUCCUGUUUCUUAUUUAUUACGAUCUUGAUAUAAUUUUCUUGAAAUCCGAAAGUUUCAGCUAUUUGACACCUCAGGUCUCUGCCAGUGACAUGCAAGCGGGUCUCCAACAAGCUUUUCUUAUCCAACAGAGGAUUGAGCAUCA

The other results are listed elsewhere or left out.

The target in the assay is T1, UNK ZnF1-3 (human, UniProt Q9C0B0 31-174).
T1 sequence: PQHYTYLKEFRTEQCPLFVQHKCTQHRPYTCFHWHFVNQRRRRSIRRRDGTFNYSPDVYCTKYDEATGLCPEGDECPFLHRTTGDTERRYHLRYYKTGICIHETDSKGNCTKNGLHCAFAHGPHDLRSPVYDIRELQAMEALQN
The experiment in a line: nsRBNS (natural sequence RNA bind-n-seq); RBNS binding buffer (assumed for nsRBNS): 25 mM Tris pH 7.5, 150 mM KCl, 3 mM MgCl2, 0.01% Triton X-100, 500 ug/ml BSA, 20 U/ml SUPERase-In, 4 C; UNK is unkempt and MSI1 is Musashi-1; names of the RNAs are library labels; protein concentration not given here; high values mean tight binding.
Molecule B1 came in with a binding signal of 0.84 enrichment R.

Take B2: the binding signal was 1.86 enrichment R.

As to B3, the binding signal was found to be 1.22 enrichment R.

Molecule B4 showed a binding signal of 0.706 enrichment R.

Regarding B5, the binding signal came out at 0.987 enrichment R.

In turn, B6 displayed a binding signal of 1.13 enrichment R.
